Laboratory results taken from patent publication US20080045697A1 (Genentech, published 2008).

Target: T1, complement C3b (UniProt P01024 23-667; P01024 part only)
T1 construct: range 1-645;range 729-1641; The residue numbers seem to count on C3 without its signal peptide
Experiment: crystal structure of the complex
Description: After refinement applying non-crystallographic symmetry restraints the final Rcryst and Rfree were 23.7% and 29.7%, respectively. Crystals of the C3b:CRIg complex diffracted to 4.1 Å resolution, belonged to space group C222₁ with cell parameters of a=97.6 Å, b=255.7 Å and c=180.3 Å. After molecular replacement using the C3c:CRIg complex, models of the CUB domain (pdb code 2A73) and the TED domain (1C3D) were manually docked in the electron density map. After rigid body refinement, clear density for the regions linking the TED and CUB domains as well as two glycosylation sites had interpretable density and could be fitted into the electron density. The final model includes a complex of CRIg and C3b without the C345C domain; the latter domain has very weak density and was included in the model with occupancies set to 0.0 to for FIG. 1. The final Rcryst and Rfree were 25.2% and 33.3% respectively.
It has been recently determined that the complement receptor CRIg forms complexes with C3b and iC3b, yet is unable to bind the parent molecule C3 (K. Y. Helmy et al., Cell 124, 915 (2006)). To better understand the structural basis for the selectivity of CRIg, the crystal structure of CRIg in its unbound state was determined at high resolution as well as in complex with C3b and C3c (4.1 Å and 3.2 Å resolution, respectively). […]

T1 sequence (P01024 23-667 limits assumed, chain 1 of 2): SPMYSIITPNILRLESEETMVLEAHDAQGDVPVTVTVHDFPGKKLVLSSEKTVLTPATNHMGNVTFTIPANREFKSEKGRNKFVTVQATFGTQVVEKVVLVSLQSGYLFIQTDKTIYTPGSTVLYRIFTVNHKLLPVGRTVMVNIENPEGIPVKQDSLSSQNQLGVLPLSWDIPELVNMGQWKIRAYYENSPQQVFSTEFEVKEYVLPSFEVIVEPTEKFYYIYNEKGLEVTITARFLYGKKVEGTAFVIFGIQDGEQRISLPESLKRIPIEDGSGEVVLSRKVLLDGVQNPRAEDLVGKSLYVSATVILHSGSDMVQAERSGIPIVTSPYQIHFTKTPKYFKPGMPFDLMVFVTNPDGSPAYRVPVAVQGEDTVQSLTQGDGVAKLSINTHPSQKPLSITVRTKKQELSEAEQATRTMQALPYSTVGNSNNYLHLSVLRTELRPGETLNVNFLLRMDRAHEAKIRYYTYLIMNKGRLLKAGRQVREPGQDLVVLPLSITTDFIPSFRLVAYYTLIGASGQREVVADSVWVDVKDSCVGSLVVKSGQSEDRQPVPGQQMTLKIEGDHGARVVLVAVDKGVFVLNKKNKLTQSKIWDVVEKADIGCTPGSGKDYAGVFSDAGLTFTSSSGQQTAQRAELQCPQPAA
T1 sequence (P01024 751-1663 limits assumed, chain 2 of 2): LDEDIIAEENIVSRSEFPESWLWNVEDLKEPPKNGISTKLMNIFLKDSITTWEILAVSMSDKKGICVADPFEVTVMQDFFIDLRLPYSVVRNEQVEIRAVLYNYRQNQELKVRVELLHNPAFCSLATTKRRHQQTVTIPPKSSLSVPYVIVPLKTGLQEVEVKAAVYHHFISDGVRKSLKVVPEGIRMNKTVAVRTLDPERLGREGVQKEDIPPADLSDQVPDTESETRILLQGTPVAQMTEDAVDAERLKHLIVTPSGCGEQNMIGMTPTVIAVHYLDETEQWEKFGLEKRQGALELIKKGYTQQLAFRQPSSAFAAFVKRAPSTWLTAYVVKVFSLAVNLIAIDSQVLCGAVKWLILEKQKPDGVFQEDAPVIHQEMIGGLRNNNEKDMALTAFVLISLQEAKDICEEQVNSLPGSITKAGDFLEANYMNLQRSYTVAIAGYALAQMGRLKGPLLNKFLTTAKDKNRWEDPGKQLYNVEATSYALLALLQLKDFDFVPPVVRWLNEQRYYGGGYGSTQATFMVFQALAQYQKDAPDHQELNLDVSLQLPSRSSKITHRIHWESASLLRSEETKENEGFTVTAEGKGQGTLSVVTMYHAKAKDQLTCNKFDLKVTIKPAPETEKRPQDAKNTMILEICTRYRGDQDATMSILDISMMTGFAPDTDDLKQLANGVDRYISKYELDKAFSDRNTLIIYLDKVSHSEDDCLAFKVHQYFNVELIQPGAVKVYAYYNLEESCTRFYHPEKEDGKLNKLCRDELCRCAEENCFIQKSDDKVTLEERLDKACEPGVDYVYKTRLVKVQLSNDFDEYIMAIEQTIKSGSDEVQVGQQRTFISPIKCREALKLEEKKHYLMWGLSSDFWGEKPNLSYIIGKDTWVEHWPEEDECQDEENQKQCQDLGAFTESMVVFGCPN

B1: CRIg, […] of mature human CRIg of SEQ ID NO: 2 (SEQ ID NO: 8) (receptor)
chain: not shown
notes: Made in pET28b with an N-terminal His-tag and thrombin site; the tag was cut off with thrombin before use; Range […] counts on the mature protein; also called purified CRIg; N-terminal domain of CRIg
binding result: binds
